# Experimental data published in article PMC9911399, “Two distinct binding modes provide the RNA-binding protein RbFox with extraordinary sequence specificity”.
# Substitutions are numbered along the chain they refer to; changes in the protein carry UniProt numbers. This is one part of the list.
# T1: RBFOX1 RRM (Homo sapiens, UniProt Q9NWB1 109-208)
# T1 sequence: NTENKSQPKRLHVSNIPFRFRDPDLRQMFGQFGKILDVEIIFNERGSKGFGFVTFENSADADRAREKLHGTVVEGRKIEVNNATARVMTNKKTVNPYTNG
# B1: GUUCGAG (DNA:RNA)
# RNA: GGGAGACCGGAAUUCAGAUUGUCCGUUCGAGUUAAAUCCCGUCGUAGCCACCA
# DNA 1: CAATCTGAATTCCGGTCTCCC
# DNA 2: TGGTGGCTACGACGGGATT
# B2: ACGAUAA (DNA:RNA)
# RNA: B1 RNA with G25A, U26C, U27G, C28A, G29U, G31A
# DNA 1: CAATCTGAATTCCGGTCTCCC
# DNA 2: TGGTGGCTACGACGGGATT
# B3: CGCGAUU (DNA:RNA)
# RNA: GGGAGACCGGAAUUCAGAUUGUCCCGCGAUUUUAAAUCCCGUCGUAGCCACCA
# DNA 1: CAATCTGAATTCCGGTCTCCC
# DNA 2: TGGTGGCTACGACGGGATT
# B4: CGGUCGG (DNA:RNA)
# RNA: B3 RNA with C27G, G28U, A29C, U30G, U31G
# DNA 1: CAATCTGAATTCCGGTCTCCC
# DNA 2: TGGTGGCTACGACGGGATT
# B5: AAAAUUC (DNA:RNA)
# RNA: B3 RNA with C25A, G26A, C27A, G28A, A29U, U31C
# DNA 1: CAATCTGAATTCCGGTCTCCC
# DNA 2: TGGTGGCTACGACGGGATT
# B6: GCACCGU (DNA:RNA)
# RNA: B1 RNA with U26C, U27A, G29C, A30G, G31U
# DNA 1: CAATCTGAATTCCGGTCTCCC
# DNA 2: TGGTGGCTACGACGGGATT
# B7: GUGUGUA (DNA:RNA)
# RNA: B1 RNA with U27G, C28U, A30U, G31A
# DNA 1: CAATCTGAATTCCGGTCTCCC
# DNA 2: TGGTGGCTACGACGGGATT
# B8: UUGUGAU (DNA:RNA)
# RNA: B1 RNA with G25U, U27G, C28U, G31U
# DNA 1: CAATCTGAATTCCGGTCTCCC
# DNA 2: TGGTGGCTACGACGGGATT
# B9: CUGCGAU (DNA:RNA)
# RNA: B1 RNA with G25C, U27G, G31U
# DNA 1: CAATCTGAATTCCGGTCTCCC
# DNA 2: TGGTGGCTACGACGGGATT
# B10: GGGUACC (DNA:RNA)
# RNA: B3 RNA with C25G, C27G, G28U, U30C, U31C
# DNA 1: CAATCTGAATTCCGGTCTCCC
# DNA 2: TGGTGGCTACGACGGGATT
# B11: AUCAGAC (DNA:RNA)
# RNA: B1 RNA with G25A, U27C, C28A, G31C
# DNA 1: CAATCTGAATTCCGGTCTCCC
# DNA 2: TGGTGGCTACGACGGGATT
# B12: UACGCAG (DNA:RNA)
# RNA: B3 RNA with C25U, G26A, A29C, U30A, U31G
# DNA 1: CAATCTGAATTCCGGTCTCCC
# DNA 2: TGGTGGCTACGACGGGATT
# B13: UCUUGAG (DNA:RNA)
# RNA: B1 RNA with G25U, U26C, C28U
# DNA 1: CAATCTGAATTCCGGTCTCCC
# DNA 2: TGGTGGCTACGACGGGATT
# B14: GUACAAG (DNA:RNA)
# RNA: B1 RNA with U27A, G29A
# DNA 1: CAATCTGAATTCCGGTCTCCC
# DNA 2: TGGTGGCTACGACGGGATT
# B15: GCUUAUG (DNA:RNA)
# RNA: B1 RNA with U26C, C28U, G29A, A30U
# DNA 1: CAATCTGAATTCCGGTCTCCC
# DNA 2: TGGTGGCTACGACGGGATT
# B16: UUAUAGA (DNA:RNA)
# RNA: B3 RNA with C25U, G26U, C27A, G28U, U30G, U31A
# DNA 1: CAATCTGAATTCCGGTCTCCC
# DNA 2: TGGTGGCTACGACGGGATT
# B17: ACUCAAG (DNA:RNA)
# RNA: B1 RNA with G25A, U26C, G29A
# DNA 1: CAATCTGAATTCCGGTCTCCC
# DNA 2: TGGTGGCTACGACGGGATT
# B18: CGCGAUC (DNA:RNA)
# RNA: B3 RNA with U31C
# DNA 1: CAATCTGAATTCCGGTCTCCC
# DNA 2: TGGTGGCTACGACGGGATT
# B19: UAACAUA (DNA:RNA)
# RNA: B3 RNA with C25U, G26A, C27A, G28C, U31A
# DNA 1: CAATCTGAATTCCGGTCTCCC
# DNA 2: TGGTGGCTACGACGGGATT
# B20: AAGUUGU (DNA:RNA)
# RNA: B3 RNA with C25A, G26A, C27G, G28U, A29U, U30G
# DNA 1: CAATCTGAATTCCGGTCTCCC
# DNA 2: TGGTGGCTACGACGGGATT
# B21: ACUGAGU (DNA:RNA)
# RNA: B3 RNA with C25A, G26C, C27U, U30G
# DNA 1: CAATCTGAATTCCGGTCTCCC
# DNA 2: TGGTGGCTACGACGGGATT
# B22: AGGAAGA (DNA:RNA)
# RNA: B3 RNA with C25A, C27G, G28A, U30G, U31A
# DNA 1: CAATCTGAATTCCGGTCTCCC
# DNA 2: TGGTGGCTACGACGGGATT
# B23: CUAUACG (DNA:RNA)
# RNA: B3 RNA with G26U, C27A, G28U, U30C, U31G
# DNA 1: CAATCTGAATTCCGGTCTCCC
# DNA 2: TGGTGGCTACGACGGGATT
# B24: CGAAUUA (DNA:RNA)
# RNA: B3 RNA with C27A, G28A, A29U, U31A
# DNA 1: CAATCTGAATTCCGGTCTCCC
# DNA 2: TGGTGGCTACGACGGGATT
# B25: GACGCAC (DNA:RNA)
# RNA: B3 RNA with C25G, G26A, A29C, U30A, U31C
# DNA 1: CAATCTGAATTCCGGTCTCCC
# DNA 2: TGGTGGCTACGACGGGATT
# B26: UUCGGUC (DNA:RNA)
# RNA: B3 RNA with C25U, G26U, A29G, U31C
# DNA 1: CAATCTGAATTCCGGTCTCCC
# DNA 2: TGGTGGCTACGACGGGATT
# B27: GACUUGU (DNA:RNA)
# RNA: B3 RNA with C25G, G26A, G28U, A29U, U30G
# DNA 1: CAATCTGAATTCCGGTCTCCC
# DNA 2: TGGTGGCTACGACGGGATT
# B28: ACGUGAA (DNA:RNA)
# RNA: B1 RNA with G25A, U26C, U27G, C28U, G31A
# DNA 1: CAATCTGAATTCCGGTCTCCC
# DNA 2: TGGTGGCTACGACGGGATT
# B29: UAAGCUU (DNA:RNA)
# RNA: B3 RNA with C25U, G26A, C27A, A29C
# DNA 1: CAATCTGAATTCCGGTCTCCC
# DNA 2: TGGTGGCTACGACGGGATT
# B30: AAUACCU (DNA:RNA)
# RNA: B3 RNA with C25A, G26A, C27U, G28A, A29C, U30C
# DNA 1: CAATCTGAATTCCGGTCTCCC
# DNA 2: TGGTGGCTACGACGGGATT
# B31: GCAGGAA (DNA:RNA)
# RNA: B1 RNA with U26C, U27A, C28G, G31A
# DNA 1: CAATCTGAATTCCGGTCTCCC
# DNA 2: TGGTGGCTACGACGGGATT
# Molecular target: T1, RBFOX1 RRM
# Assay: EMSA; HiTS-Eq, 1 nM pool, 10 min; buffer printed only for the single-RNA assays: 10 mM Tris pH 7.5, 150 mM NaCl, 3.4 mM EDTA, 0.001% NP-40, 30 C
# Conditions: tags: His6 N-terminal (pET28a); label: 5' 32P
# In short: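 These values rest on relative association constants, computed from read-count changes of each RNA species versus the control reaction and normalised to the cognate motif. Reads came from free RNA recovered by 8% native PAGE after purified RbFox RRM (wild type or mutant) at increasing concentrations was equilibrated for 10 min in 50 µL with 1 nM of a 5′-radiolabelled pool with 7 randomized nucleotides and DNA-annealed flanks.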
row,Binder,binding signal
1,B1,0.0205 KA relative to UGCAUGU
2,B2,0.00231 KA relative to UGCAUGU
3,B3,0.0158 KA relative to UGCAUGU
4,B4,0.0152 KA relative to UGCAUGU
5,B5,0.00257 KA relative to UGCAUGU
6,B6,0.0125 KA relative to UGCAUGU
7,B7,0.0163 KA relative to UGCAUGU
8,B8,0.015 KA relative to UGCAUGU
9,B9,0.015 KA relative to UGCAUGU
10,B10,0.00807 KA relative to UGCAUGU
11,B11,0.00347 KA relative to UGCAUGU
12,B12,0.0117 KA relative to UGCAUGU
13,B13,0.0207 KA relative to UGCAUGU
14,B14,0.0094 KA relative to UGCAUGU
15,B15,0.0101 KA relative to UGCAUGU
16,B16,0.00812 KA relative to UGCAUGU

row,Binder,binding signal
1,B17,0.00459 KA relative to UGCAUGU
2,B18,0.0167 KA relative to UGCAUGU
3,B19,0.0014 KA relative to UGCAUGU
4,B20,0.0106 KA relative to UGCAUGU
5,B21,0.00991 KA relative to UGCAUGU
6,B22,0.0155 KA relative to UGCAUGU
7,B23,0.00882 KA relative to UGCAUGU
8,B24,0.00497 KA relative to UGCAUGU
9,B25,0.0147 KA relative to UGCAUGU
10,B26,0.00592 KA relative to UGCAUGU
11,B27,0.0175 KA relative to UGCAUGU
12,B28,0.00505 KA relative to UGCAUGU
13,B29,0.0104 KA relative to UGCAUGU
14,B30,0.00191 KA relative to UGCAUGU
15,B31,0.00999 KA relative to UGCAUGU
